Results are given in words; binding and its absence hold for the method and conditions named. In cells and extracts the contact can be indirect. Some entries that bind do so weakly or less than the wild type. Where a sequence is shown, tags or fusion partners need not be part of it.

Experimental findings from paper PMC9922296, “Mechanistic insights into RNA surveillance by the canonical poly(A) polymerase Pla1 of the MTREC complex” (Nature Communications, 2023) are described below.

Experiment [1] has as its target T1, C-terminally Flag-ProtA-tagged Red1 Δ288-345 deletion mutant (S. pombe) (UniProt Q9UTR8).
T1 sequence: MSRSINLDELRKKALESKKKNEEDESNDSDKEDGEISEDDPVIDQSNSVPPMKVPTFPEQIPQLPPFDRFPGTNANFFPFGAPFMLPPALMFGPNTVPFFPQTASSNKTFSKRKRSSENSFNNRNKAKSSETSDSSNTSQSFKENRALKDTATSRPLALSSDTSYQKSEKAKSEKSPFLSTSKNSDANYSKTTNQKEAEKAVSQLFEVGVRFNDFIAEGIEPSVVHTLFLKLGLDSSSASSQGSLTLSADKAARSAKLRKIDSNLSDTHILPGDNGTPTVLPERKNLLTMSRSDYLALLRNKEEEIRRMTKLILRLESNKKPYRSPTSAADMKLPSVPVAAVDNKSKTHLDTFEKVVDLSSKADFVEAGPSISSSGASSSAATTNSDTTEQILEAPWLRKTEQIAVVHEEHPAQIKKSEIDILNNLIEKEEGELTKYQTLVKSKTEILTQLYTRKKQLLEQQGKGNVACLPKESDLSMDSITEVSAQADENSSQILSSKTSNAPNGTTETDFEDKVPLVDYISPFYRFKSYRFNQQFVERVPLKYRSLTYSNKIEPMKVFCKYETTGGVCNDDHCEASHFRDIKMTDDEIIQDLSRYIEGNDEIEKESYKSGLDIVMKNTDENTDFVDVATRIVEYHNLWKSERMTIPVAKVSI
Briefly: co-IP; tandem affinity purification of Red1-FTP from S. pombe strains with Pla1-HA; inputs and final eluates blotted with anti-HA and anti-Flag.

Experiment [2] deals with T2, C-terminally Flag-ProtA-tagged wild-type Red1 (S. pombe) (UniProt Q9UTR8).
T2 sequence: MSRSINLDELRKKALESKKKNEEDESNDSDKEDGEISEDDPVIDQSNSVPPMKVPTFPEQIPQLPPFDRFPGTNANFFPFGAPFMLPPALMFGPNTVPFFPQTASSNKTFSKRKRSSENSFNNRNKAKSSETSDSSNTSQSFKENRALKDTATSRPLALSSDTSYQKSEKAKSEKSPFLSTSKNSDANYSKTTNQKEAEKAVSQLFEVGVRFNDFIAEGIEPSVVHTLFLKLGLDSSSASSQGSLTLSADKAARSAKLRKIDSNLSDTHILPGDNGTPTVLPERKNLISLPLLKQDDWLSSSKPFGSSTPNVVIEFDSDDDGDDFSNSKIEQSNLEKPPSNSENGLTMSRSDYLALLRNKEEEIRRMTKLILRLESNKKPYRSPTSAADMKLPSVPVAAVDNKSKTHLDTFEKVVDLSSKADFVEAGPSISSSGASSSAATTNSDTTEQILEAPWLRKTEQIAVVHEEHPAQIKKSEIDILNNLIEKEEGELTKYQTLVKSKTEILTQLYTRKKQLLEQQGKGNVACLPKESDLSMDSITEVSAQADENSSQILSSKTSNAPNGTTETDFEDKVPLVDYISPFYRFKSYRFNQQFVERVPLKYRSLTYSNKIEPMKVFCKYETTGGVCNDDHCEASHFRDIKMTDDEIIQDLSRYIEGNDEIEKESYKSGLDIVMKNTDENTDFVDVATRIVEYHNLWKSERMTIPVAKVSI
The experiment is described as above.

B1: HA-tagged Pla1 (genomic copy) (enzyme, UniProt Q10295 1-566)
chain: MTTKQWGITPPISTAPATEQENALNTALINELKNQNLFESPAESEKRVKVLDELQQITTEFVKKVSLAKHMNEKMANEAGGKIFTYGSYRLGVYGPGSDIDTLVVVPKHVSRDNFFQDLEPMLREREEVTDLAAVPDAYVPIIKFKFLGISIDLIFARLSVPRVPRDLELSDNNLLKGVEERCVLSLNGTRVTDQILQLVPNRAVFKHALRAIKFWAQRRAIYANVVGFPGGVAWAMMVARICQLYPNAVSSVIVAKFFRILHQWNWPQPILLKPIEDGPLQVRIWNPKLYPSDKAHRMPIITPAYPSMCATHNITLSTQTIILREMVRAGEIADQIMVKALPWSALFQKHDFFHRYKHYLTITAAAKTAEAQLKWAGLVESKLRHLVTRLELVDAIALAHPFNKGFDKVYNCSSEEEAQQVASGVTLEVAYESTDHEKLANDTVNEEKADNTESKADGSENGEKQIFPVYTTTCYIGLELEKKKGHPIKRLDISWPTQEFYELCKKWDKYDDTLMNVFIKNTKNTALPDEVFEPGEERPKATKKRSTADTAHSTEQLKRQKVSTA
Regarding B1, the binding entry is reported as “no binding” in experiment [1] and “binds” in experiment [2].
